# This is one part of the list.
# B1: PhoQ; a variant is named by its letters at X, in order, P23837 (parent)
# chain: MKKLLRLFFPLSLRVRFLLATAAVVLVLSLAYGMVALIGYSVSFDKTTFRLLRGESNLFYTLAKWENNKLHVELPENIDKQSPTMTLIYDENGQLLWAQRDVPWLMKMIQPDWLKSNGFHEIEADVNDTSLLLSGDHSIQQQLQEVREDDDDAEMTHSVAVNVYPATSRMPKLTIVVVDTIPVELKSSYMVWSWFIYVLSANLLLVIPLLWVAAWWSLRPIEALAKEVRELEEHNRELLNPATTRELTSLVRNLNRLLKSERERYDKYRTTLTDLTHSLKTPLXXLQXXLRSLRSEKMSVSDAEPVMLEQISRISQQIGYYLHRASMRGGTLLSRELHPVAPLLDNLTSALNKVYQRKGVNISLDISPEISFVGEQNDFVEVMGNVLDNACKYCLEFVEISARQTDEHLYIVVEDDGPGIPLSKREVIFDRGQRVDTLRPGQGVGLAVAREITEQYEGKIVAGESMLGGARMEVIFGRQHSAPKDE
# Variants of: B1
# Assay: enrichment ratio after two sorts for PhoP signalling (ratio (wild type AVST 3.29)); higher = more functional
# Settings: with PhoP (E. coli)
row,Variant,enrichment ratio
1,YSSH,≤ 0.25
2,MAYY,5.48
3,AKSM,15.5
4,RDPS,≤ 0.25
5,KSVT,≤ 0.25
6,IYLK,≤ 0.25
7,VSHV,≤ 0.25
8,SYIW,≤ 0.25
9,RPDI,≤ 0.25
10,SNRY,≤ 0.25
11,ESQW,≤ 0.25
12,ASTI,13.9
13,KHKM,≤ 0.25
14,SNHH,≤ 0.25
15,ESAF,≤ 0.25
16,WSKE,≤ 0.25
17,WGFS,≤ 0.25
18,DAPA,≤ 0.25
19,VWTI,≤ 0.25
20,PALI,≤ 0.25
21,KFSW,≤ 0.25

row,Variant,enrichment ratio
1,SGFL,4.93
2,GWCT,≤ 0.25
3,PIEG,≤ 0.25
4,RADD,≤ 0.25
5,VKHD,≤ 0.25
6,EKDY,≤ 0.25
7,HYGH,≤ 0.25
8,LYEH,≤ 0.25
9,VSRS,≤ 0.25
10,DCSY,≤ 0.25
11,GNFR,≤ 0.25
12,HPPD,≤ 0.25
13,TQRI,≤ 0.25
14,YRRV,≤ 0.25
15,KPYI,≤ 0.25
16,DFDV,≤ 0.25
17,EFDW,≤ 0.25
18,EETV,≤ 0.25
19,WIVS,≤ 0.25
20,ECAK,≤ 0.25
21,VLLH,0.422

row,Variant,enrichment ratio
1,SMHW,≤ 0.25
2,NMHH,≤ 0.25
3,WKLR,≤ 0.25
4,WKQS,≤ 0.25
5,WGRI,≤ 0.25
6,APSH,≤ 0.25
7,QAFE,≤ 0.25
8,INTF,≤ 0.25
9,WTAL,≤ 0.25
10,HAGN,≤ 0.25
11,WPLS,≤ 0.25
12,IHWY,≤ 0.25
13,QTHG,≤ 0.25
14,EGHQ,≤ 0.25
15,NAGL,≤ 0.25
16,AHQM,≤ 0.25
17,ESWW,≤ 0.25
18,KFNW,≤ 0.25
19,VSVL,2.56
20,YPIF,≤ 0.25
21,SEIH,3.05

row,Variant,enrichment ratio
1,NTSN,≤ 0.25
2,QFCL,≤ 0.25
3,NPAR,≤ 0.25
4,NILY,≤ 0.25
5,GTMY,5.58
6,QTHM,≤ 0.25
7,MQVM,≤ 0.25
8,THEA,≤ 0.25
9,DIHG,≤ 0.25
10,KNPI,≤ 0.25
11,LQTV,≤ 0.25
12,SLYM,≤ 0.25
13,YYYW,≤ 0.25
14,VVDN,≤ 0.25
15,DHRV,≤ 0.25
16,ENVG,≤ 0.25
17,FYCY,≤ 0.25
18,FIWI,≤ 0.25
19,HCWM,≤ 0.25
20,QELT,≤ 0.25
21,ASPP,≤ 0.25
